Results as given in patent US20260008835A1 (SHANGHAI REGENELEAD THERAPIES, published 2026).

T1: Human VEGF-A protein (human, UniProt P15692-4 27-191, limits assumed)
T1 sequence (looked up): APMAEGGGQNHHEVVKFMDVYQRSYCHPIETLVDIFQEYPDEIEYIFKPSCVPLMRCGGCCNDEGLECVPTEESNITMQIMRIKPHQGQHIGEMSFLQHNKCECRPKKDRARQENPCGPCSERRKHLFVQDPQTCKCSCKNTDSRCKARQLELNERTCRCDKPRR

B1: PR1114 (R1D2-R2D3-linker-R2D2-R2D3 (N274I)-Fc) (Fc fusion)
chain: SDTGRPFVEMYSEIPEIIHMTEGRELVIPCRVTSPNITVTLKKFPLDTLIPDGKRIIWDSRKGFIISNATYKEIGLLTCEATVNGHLYKTNYLTHRQTNTIIDVVLSPSHGIELSVGEKLVLNCTARTELNVGIDFNWEYPSSKHQHKKLVNRDLKTQSGSEMKKFLSTLTIDGVTRSDQGLYTCAASSGLMTKKNSTFVRVHEKGGGGSSPFIASVSDQHGVVYITENKNKTVVIPCLGSISNLNVSLCARYPEKRFVPDGNRISWDSKKGFTIPSYMISYAGMVFCEAKINDESYQSIMYIVVVVGYRIYDVVLSPSHGIELSVGEKLVLNCTARTELNVGIDFNWEYPSSKHQHKKLVIRDLKTQSGSEMKKFLSTLTIDGVTRSDQGLYTCAASSGLMTKKNSTFVRVHEK[human IgG1 Fc with changes not printed]
B2: PR1115 (R1D2-R2D3-linker-R2D2-R2D3 (R275L)-Fc) (Fc fusion)
chain: SDTGRPFVEMYSEIPEIIHMTEGRELVIPCRVTSPNITVTLKKFPLDTLIPDGKRIIWDSRKGFIISNATYKEIGLLTCEATVNGHLYKTNYLTHRQTNTIIDVVLSPSHGIELSVGEKLVLNCTARTELNVGIDFNWEYPSSKHQHKKLVNRDLKTQSGSEMKKFLSTLTIDGVTRSDQGLYTCAASSGLMTKKNSTFVRVHEKGGGGSSPFIASVSDQHGVVYITENKNKTVVIPCLGSISNLNVSLCARYPEKRFVPDGNRISWDSKKGFTIPSYMISYAGMVFCEAKINDESYQSIMYIVVVVGYRIYDVVLSPSHGIELSVGEKLVLNCTARTELNVGIDFNWEYPSSKHQHKKLVNLDLKTQSGSEMKKFLSTLTIDGVTRSDQGLYTCAASSGLMTKKNSTFVRVHEK[human IgG1 Fc with changes not printed]
B3: PR1116 (R1D2-R2D3-linker-R2D2-R2D3 (R275E)-Fc) (Fc fusion)
chain: SDTGRPFVEMYSEIPEIIHMTEGRELVIPCRVTSPNITVTLKKFPLDTLIPDGKRIIWDSRKGFIISNATYKEIGLLTCEATVNGHLYKTNYLTHRQTNTIIDVVLSPSHGIELSVGEKLVLNCTARTELNVGIDFNWEYPSSKHQHKKLVNRDLKTQSGSEMKKFLSTLTIDGVTRSDQGLYTCAASSGLMTKKNSTFVRVHEKGGGGSSPFIASVSDQHGVVYITENKNKTVVIPCLGSISNLNVSLCARYPEKRFVPDGNRISWDSKKGFTIPSYMISYAGMVFCEAKINDESYQSIMYIVVVVGYRIYDVVLSPSHGIELSVGEKLVLNCTARTELNVGIDFNWEYPSSKHQHKKLVNEDLKTQSGSEMKKFLSTLTIDGVTRSDQGLYTCAASSGLMTKKNSTFVRVHEK[human IgG1 Fc with changes not printed]
B4: PR1118 (R1D2-R2D3-linker-R2D2-R2D3 (D276Q)-Fc) (Fc fusion)
chain: SDTGRPFVEMYSEIPEIIHMTEGRELVIPCRVTSPNITVTLKKFPLDTLIPDGKRIIWDSRKGFIISNATYKEIGLLTCEATVNGHLYKTNYLTHRQTNTIIDVVLSPSHGIELSVGEKLVLNCTARTELNVGIDFNWEYPSSKHQHKKLVNRDLKTQSGSEMKKFLSTLTIDGVTRSDQGLYTCAASSGLMTKKNSTFVRVHEKGGGGSSPFIASVSDQHGVVYITENKNKTVVIPCLGSISNLNVSLCARYPEKRFVPDGNRISWDSKKGFTIPSYMISYAGMVFCEAKINDESYQSIMYIVVVVGYRIYDVVLSPSHGIELSVGEKLVLNCTARTELNVGIDFNWEYPSSKHQHKKLVNRQLKTQSGSEMKKFLSTLTIDGVTRSDQGLYTCAASSGLMTKKNSTFVRVHEK[human IgG1 Fc with changes not printed]
B5: PR1119 (R1D2-R2D3-linker-R2D2-R2D3 (L277R)-Fc) (Fc fusion)
chain: SDTGRPFVEMYSEIPEIIHMTEGRELVIPCRVTSPNITVTLKKFPLDTLIPDGKRIIWDSRKGFIISNATYKEIGLLTCEATVNGHLYKTNYLTHRQTNTIIDVVLSPSHGIELSVGEKLVLNCTARTELNVGIDFNWEYPSSKHQHKKLVNRDLKTQSGSEMKKFLSTLTIDGVTRSDQGLYTCAASSGLMTKKNSTFVRVHEKGGGGSSPFIASVSDQHGVVYITENKNKTVVIPCLGSISNLNVSLCARYPEKRFVPDGNRISWDSKKGFTIPSYMISYAGMVFCEAKINDESYQSIMYIVVVVGYRIYDVVLSPSHGIELSVGEKLVLNCTARTELNVGIDFNWEYPSSKHQHKKLVNRDRKTQSGSEMKKFLSTLTIDGVTRSDQGLYTCAASSGLMTKKNSTFVRVHEK[human IgG1 Fc with changes not printed]
B6: PR1120 (R1D2-R2D3-linker-R2D2-R2D3 (K278D)-Fc) (Fc fusion)
chain: SDTGRPFVEMYSEIPEIIHMTEGRELVIPCRVTSPNITVTLKKFPLDTLIPDGKRIIWDSRKGFIISNATYKEIGLLTCEATVNGHLYKTNYLTHRQTNTIIDVVLSPSHGIELSVGEKLVLNCTARTELNVGIDFNWEYPSSKHQHKKLVNRDLKTQSGSEMKKFLSTLTIDGVTRSDQGLYTCAASSGLMTKKNSTFVRVHEKGGGGSSPFIASVSDQHGVVYITENKNKTVVIPCLGSISNLNVSLCARYPEKRFVPDGNRISWDSKKGFTIPSYMISYAGMVFCEAKINDESYQSIMYIVVVVGYRIYDVVLSPSHGIELSVGEKLVLNCTARTELNVGIDFNWEYPSSKHQHKKLVNRDLDTQSGSEMKKFLSTLTIDGVTRSDQGLYTCAASSGLMTKKNSTFVRVHEK[human IgG1 Fc with changes not printed]
B7: PR1122 (R1D2-R2D3-linker-R2D2-R2D3 (K278E)-Fc) (Fc fusion)
chain: SDTGRPFVEMYSEIPEIIHMTEGRELVIPCRVTSPNITVTLKKFPLDTLIPDGKRIIWDSRKGFIISNATYKEIGLLTCEATVNGHLYKTNYLTHRQTNTIIDVVLSPSHGIELSVGEKLVLNCTARTELNVGIDFNWEYPSSKHQHKKLVNRDLKTQSGSEMKKFLSTLTIDGVTRSDQGLYTCAASSGLMTKKNSTFVRVHEKGGGGSSPFIASVSDQHGVVYITENKNKTVVIPCLGSISNLNVSLCARYPEKRFVPDGNRISWDSKKGFTIPSYMISYAGMVFCEAKINDESYQSIMYIVVVVGYRIYDVVLSPSHGIELSVGEKLVLNCTARTELNVGIDFNWEYPSSKHQHKKLVNRDLETQSGSEMKKFLSTLTIDGVTRSDQGLYTCAASSGLMTKKNSTFVRVHEK[human IgG1 Fc with changes not printed]
B8: PR1123 (R1D2-R2D3-linker-R2D2-R2D3 (Q280E)-Fc) (Fc fusion)
chain: SDTGRPFVEMYSEIPEIIHMTEGRELVIPCRVTSPNITVTLKKFPLDTLIPDGKRIIWDSRKGFIISNATYKEIGLLTCEATVNGHLYKTNYLTHRQTNTIIDVVLSPSHGIELSVGEKLVLNCTARTELNVGIDFNWEYPSSKHQHKKLVNRDLKTQSGSEMKKFLSTLTIDGVTRSDQGLYTCAASSGLMTKKNSTFVRVHEKGGGGSSPFIASVSDQHGVVYITENKNKTVVIPCLGSISNLNVSLCARYPEKRFVPDGNRISWDSKKGFTIPSYMISYAGMVFCEAKINDESYQSIMYIVVVVGYRIYDVVLSPSHGIELSVGEKLVLNCTARTELNVGIDFNWEYPSSKHQHKKLVNRDLKTESGSEMKKFLSTLTIDGVTRSDQGLYTCAASSGLMTKKNSTFVRVHEK[human IgG1 Fc with changes not printed]
B9: PR1124 (R1D2-R2D3-linker-R2D2-R2D3 (S283T)-Fc) (Fc fusion)
chain: SDTGRPFVEMYSEIPEIIHMTEGRELVIPCRVTSPNITVTLKKFPLDTLIPDGKRIIWDSRKGFIISNATYKEIGLLTCEATVNGHLYKTNYLTHRQTNTIIDVVLSPSHGIELSVGEKLVLNCTARTELNVGIDFNWEYPSSKHQHKKLVNRDLKTQSGSEMKKFLSTLTIDGVTRSDQGLYTCAASSGLMTKKNSTFVRVHEKGGGGSSPFIASVSDQHGVVYITENKNKTVVIPCLGSISNLNVSLCARYPEKRFVPDGNRISWDSKKGFTIPSYMISYAGMVFCEAKINDESYQSIMYIVVVVGYRIYDVVLSPSHGIELSVGEKLVLNCTARTELNVGIDFNWEYPSSKHQHKKLVNRDLKTQSGTEMKKFLSTLTIDGVTRSDQGLYTCAASSGLMTKKNSTFVRVHEK[human IgG1 Fc with changes not printed]
B10: PR1125 (R1D2-R2D3-linker-R2D2-R2D3 (E284H)-Fc) (Fc fusion)
chain: SDTGRPFVEMYSEIPEIIHMTEGRELVIPCRVTSPNITVTLKKFPLDTLIPDGKRIIWDSRKGFIISNATYKEIGLLTCEATVNGHLYKTNYLTHRQTNTIIDVVLSPSHGIELSVGEKLVLNCTARTELNVGIDFNWEYPSSKHQHKKLVNRDLKTQSGSEMKKFLSTLTIDGVTRSDQGLYTCAASSGLMTKKNSTFVRVHEKGGGGSSPFIASVSDQHGVVYITENKNKTVVIPCLGSISNLNVSLCARYPEKRFVPDGNRISWDSKKGFTIPSYMISYAGMVFCEAKINDESYQSIMYIVVVVGYRIYDVVLSPSHGIELSVGEKLVLNCTARTELNVGIDFNWEYPSSKHQHKKLVNRDLKTQSGSHMKKFLSTLTIDGVTRSDQGLYTCAASSGLMTKKNSTFVRVHEK[human IgG1 Fc with changes not printed]

What follows are binders tested against T1, Human VEGF-A protein (assay: cell-based or functional assay).
In the case of B1, the “VEGF-A IC50; VEGF-A-induced NFAT-RE-luc2P/KDR HEK293 reporter gene expression” value is reported as 0.36 nM. For B2, the “VEGF-A IC50; VEGF-A-induced NFAT-RE-luc2P/KDR HEK293 reporter gene expression” value was 0.28 nM. In the case of B3, the “VEGF-A IC50; VEGF-A-induced NFAT-RE-luc2P/KDR HEK293 reporter gene expression” value is reported as 0.54 nM. B4 was tested, and the “VEGF-A IC50; VEGF-A-induced NFAT-RE-luc2P/KDR HEK293 reporter gene expression” value was 0.22 nM. In the case of B5, the “VEGF-A IC50; VEGF-A-induced NFAT-RE-luc2P/KDR HEK293 reporter gene expression” value is reported as 0.14 nM. For B6, the “VEGF-A IC50; VEGF-A-induced NFAT-RE-luc2P/KDR HEK293 reporter gene expression” value was 0.38 nM. B7 was tested, and the “VEGF-A IC50; VEGF-A-induced NFAT-RE-luc2P/KDR HEK293 reporter gene expression” value was 0.36 nM. For B8, the “VEGF-A IC50; VEGF-A-induced NFAT-RE-luc2P/KDR HEK293 reporter gene expression” value was 0.21 nM. For B9, the “VEGF-A IC50; VEGF-A-induced NFAT-RE-luc2P/KDR HEK293 reporter gene expression” value was 0.29 nM. For B10, the “VEGF-A IC50; VEGF-A-induced NFAT-RE-luc2P/KDR HEK293 reporter gene expression” value was 0.23 nM.
